# Measured values from PubChem BioAssay AID686971 (National Center for Advancing Translational Sciences (NCATS), 2013).
# The campaign covered roughly 360,000 compounds. About 7,500 (2.1%) were called active. The shares of active, inactive and inconclusive entries below differ from those in the screen. The call rests on the fitted dose curve; in most records, active means well fitted cell-killing curve with a large enough effect; inconclusive means small, poorly fitted or top-dose-only effect, or effect the other way, or another doubt; inactive means no such curve, though single readings can be large or run the other way. Potencies of inconclusive entries are left out as doubtful fits.
# Experiment: qHTS for induction of synthetic lethality in tumor cells producing 2HG: qHTS for the HT-1080-IDH1KD cell line;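 on activity, negative = toxicity: 0% = DMSO wells and -100% = cell-free medium wells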
# Conditions: HT-1080 IDH1 knockdown viability, ATP luminescence, 48 h; activity, negative = toxicity: at 46.1 µM (top of the series) unless noted
# How it was run: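 After a 2 h attachment period, IDH1KD HT-1080 cells took pin-transferred compound for 48 h at 37 °C; ATP-based luminescence after 10 min room-temperature reagent incubation reported viability.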
# Potency means the concentration at half of the fitted maximal effect; tags describe the fitted curve by direction and shape.
SMILES,"activity, negative = toxicity",Potency
COCCn1c(COc2ccc(C)cc2)nc2ccccc21,inactive: -18.7%,–
C[C@H](CO)N1C[C@H](C)[C@@H](CN(C)Cc2ccccc2)Oc2c(NS(=O)(=O)c3cn(C)cn3)cccc2C1=O,inactive: -1.1%,–
COc1cc(C2NC(=O)NC(C)=C2C(=O)OCc2ccc(C)cc2)cc(OC)c1O (configuration not stated),inactive: -15.3%,–
O=S(=O)(c1ccc(NC(=S)NN=Cc2ccccc2O)cc1)N1CCCCC1,inconclusive: -31.7% [cytotoxic],–
O=C(NCCc1ccc(Cl)cc1)C1CCN(c2ncccn2)CC1,inactive: 5.91%,–
CC(C)(C)C(=O)COC(=O)C1CC(=O)N(c2ccccc2)C1 (configuration not stated),inactive: -3.94%,–
CCCCCC(=O)NC(=S)NNC(=O)c1ccc([N+](=O)[O-])cc1,–,"inconclusive [cytotoxic, single point]"
COCCNC(=O)c1ccc(-n2c(SCc3ccncc3)nc3ccccc3c2=O)cc1,–,"inconclusive [cytotoxic, partial curve]"
CC1CCC(C(C)C)C(=O)/C1=C/c1ccc(N)cc1 (configuration not stated),–,"inconclusive [cytotoxic, single point]"
CCNc1nc(SCCOc2ccc(Cl)cc2Cl)nc(N(C)C)n1,inactive: 1.04%,–
Cc1ccc(NC(=O)NCCCc2ccccc2)cc1,inactive: 1.83%,–
Cc1ccc(/C=C/C(=O)c2ccccc(=O)c2O)cc1C,–,"inconclusive [cytotoxic, single point]"
CC1CCc2nc3ccc(S(=O)(=O)N4CCC(C(=O)N5CCCCCC5)CC4)cc3c(C(=O)O)c2C1 (configuration not stated),inactive: 0.759%,–
CSCCC(NC(=O)c1ccccc1)C(=O)N(C)CC(=O)Nc1ccc(N2CCOCC2)cc1 (configuration not stated),–,"inconclusive [rising, partial curve]"
Cn1nc(-c2ccc(C(=O)Nc3cccc(Cl)c3)cc2)c2ccccc2c1=O,–,"inconclusive [cytotoxic, single point]"
O=C(CSc1cccc[n+]1[O-])NC1CCCCCCC1,inactive: 12.1%,–
O=C(Nc1ccc(Cl)cc1)C1Cc2c(-c3ccc4c(c3)OCO4)ccnc2O1 (configuration not stated),inconclusive: -31.2% [cytotoxic],–
COc1ccc(NC(=O)c2cc(C)n(Cc3cccs3)c2C)cc1,–,"inconclusive [cytotoxic, partial curve]"
COc1ccc(CN(C(=S)Nc2ccccc2)C2CC(=O)N(c3ccc(Cl)cc3)C2=O)cc1 (configuration not stated),–,"inconclusive [cytotoxic, single point]"

SMILES,"activity, negative = toxicity",Potency
O=C(Nc1ccc2c(c1)OCCO2)C(c1cc2ccccc2o1)N1CCN(C/C=C/c2ccccc2)CC1 (configuration not stated),–,"inconclusive [cytotoxic, single point]"
CC(=O)N/C(=C\c1ccc(Cl)cc1)C(=O)O,inactive: 12.4%,–
CCCCOC(=O)Cn1c(=O)n(CC(=O)OCCCC)c2ccccc21,inactive: 0.79% [at 9.24 µM],–
CCN(C(=O)c1ccc(Cl)cc1[N+](=O)[O-])c1ccccc1C,inactive: 2.56%,–
C=C(c1ccc2nc(NC(=O)OC)[nH]c2c1)c1cccs1,–,active: 0.731 µM
COC(=O)C1=C(C)N(C)C(C)=C(C(=O)OC)C1c1ccccn1,inactive: 11.8%,–
CSc1nsc(NC(=O)Nc2ccccc2)n1,–,"inconclusive [cytotoxic, single point]"
Cc1cc2c(cc1C)-n1nnnc1C(N1CCN(CC(=O)N3CCCC3)CC1)C(=O)N2 (configuration not stated),inactive: 15.2%,–
CC1=C(C(=O)OCC2CCCO2)C(c2cccc(C(F)(F)F)c2)C2=C(CC(c3ccco3)CC2=O)N1 (configuration not stated),–,"inconclusive [cytotoxic, single point]"
COc1cccc(NC(=S)N2CCCN(Cc3ccc(F)cc3)C2)c1,inconclusive: -31.3% [cytotoxic],–
Cn1c(-c2ccc(F)cc2)cnc1SCC(=O)Nc1ccccc1,inconclusive: -12.5% [cytotoxic],–
CC(C)=CCC1=C(OCC(=O)O)C(=O)c2ccccc2C1=O,–,"inconclusive [cytotoxic, single point]"
O=S(=O)(c1ccccc1)N1CCN(c2ccnc3cc(Cl)ccc23)CC1,–,"inconclusive [cytotoxic, single point]"
COc1ccc(C2(O)CCN(CCCCOc3ccccc3)CC2)cc1,–,"inconclusive [cytotoxic, single point]"
Cc1ccc(NCc2ccccc2O)cc1,–,"inconclusive [cytotoxic, single point]"
COc1cccc(-c2cc(C(=O)N3C(C)CCCC3C)no2)c1 (configuration not stated),–,"inconclusive [cytotoxic, partial curve]"
CC1=CC2=NC(=O)/C(=C\c3ccc(-c4cccc(Cl)c4)o3)C(=N)N2O1,–,active: 8.2 µM
CC(C)(C)c1nc2ccccc2c(=O)n1N1C(=O)c2ccccc2C1=O,–,"inconclusive [cytotoxic, single point]"
